# Out of some 340,000 compounds screened, about 6,900 (2%) were called active. Cut-off read from the data, not from the text of the source: active = inhibition above about 30%; inactive = below that, where a call was filed. This is a selection; strong and weak results do not stand in their true shares. Where no call is shown, the source filed none.
# Molecular target: D(2) dopamine receptor (Homo sapiens) (UniProt P14416)
# Experiment: HTS Assay for Allosteric Antagonists of the Human D2 Dopamine Receptor: Primary Screen for Antagonists; note: 0% is about no effect
# Settings: HEK293 TREx D2 cells, calcium flux, dopamine EC80; at 10 µM; stronger effect = higher value
# Procedure, shortened: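 Cells plated overnight at 30 C with tetracycline; no-wash calcium dye, 30–90 min RT; 10 s baseline; compound pinned; 180 s read; EC80 dopamine added; another 180 s read.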
# Sequence of UniProt P14416 (P14416 whole entry, looked up): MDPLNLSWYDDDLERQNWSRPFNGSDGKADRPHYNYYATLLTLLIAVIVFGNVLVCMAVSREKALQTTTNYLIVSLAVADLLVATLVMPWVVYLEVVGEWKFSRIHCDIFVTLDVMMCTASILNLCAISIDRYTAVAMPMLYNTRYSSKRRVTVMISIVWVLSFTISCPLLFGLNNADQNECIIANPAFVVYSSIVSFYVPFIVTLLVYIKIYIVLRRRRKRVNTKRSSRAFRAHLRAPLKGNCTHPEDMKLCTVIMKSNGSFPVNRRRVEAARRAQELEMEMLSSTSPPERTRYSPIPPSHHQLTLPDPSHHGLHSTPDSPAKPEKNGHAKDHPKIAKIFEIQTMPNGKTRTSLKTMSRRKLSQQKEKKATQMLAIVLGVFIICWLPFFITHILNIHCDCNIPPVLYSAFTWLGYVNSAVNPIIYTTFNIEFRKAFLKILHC
row,SMILES,inhibition
1,O=C(NC1CCCCC1)c1ccc(Cn2c(SCc3ccccc3F)nc3cccnc32)cc1,9.53%
2,Nc1c(-c2nc(-c3cccs3)no2)nnn1-c1ccc(Cl)cc1,-10.3%
3,CCn1c(C(=O)NCCc2ccc(OC)c(OC)c2)cc2sc(Cl)cc21,-6.69%
4,COC(=O)c1cc2oc3ccccc3c2n1Cc1nc(-c2ccc(OC)cc2)oc1C,-0.22%
5,Cc1noc(/C=C/c2cccs2)c1S(=O)(=O)N1CCC(C(=O)Nc2ccc(F)c(Cl)c2)CC1,6.79%
6,CC(=O)c1ccc(N2CCN(c3ncnc4c3c(-c3ccccc3)cn4-c3cccc(C)c3)CC2)cc1,-2.21%
7,CCC(=O)N1CCc2cc(Br)cc(S(=O)(=O)N3CCC(C(=O)NCCCOC(C)C)CC3)c21,1.32%
8,COc1ccccc1N1CCN(Cc2ccsc2)CC1,active: 104%
9,CCOC(=O)c1ccc(NC(=O)c2c(-c3c(F)cccc3Cl)noc2C)cc1,-1.12%
10,Cc1cccc(N2CCN(c3ncnc4c3nc3n4CCCCC3)CC2)c1C,-26.1%
11,N#C[C@]1(S(=O)(=O)c2ccccc2)C[C@@H]2ON=C(c3cccc(Br)c3)[C@@H]2C1,active: 41.5%
12,CCOc1ccc(NC(=O)c2ccc(NC(=O)N3CCSc4ncccc43)cc2)cc1,-1.62%
13,COc1ccc(C2CC(=O)c3cc(-c4nc(-c5cccc(Cl)c5)cs4)c(=O)[nH]c3C2)cc1OC (stereo not given),8.4%
14,COC(=O)c1ccccc1NC(=O)c1ccc(COc2ccccc2Cl)o1,-0.0416%
15,COc1ccccc1CNC(=O)C1CCCN(c2nc3ccccc3n3cccc23)C1 (stereo not given),22%
16,CCCCOc1ccc(-c2nn(-c3ccccc3)cc2C2NC(=O)NC(C)=C2C(=O)OC)cc1 (stereo not given),-17.4%
17,O=C(C1CC1)N1CCc2cc(Br)cc(S(=O)(=O)N3CCN(c4cccc(C(F)(F)F)c4)CC3)c21,-4.13%
18,COc1ccc(Cl)cc1C(=O)Nc1sc2c(c1C(=O)OC(C)C)CCCC2,-8.63%
19,CC(=O)N1CCc2cc(Br)cc(S(=O)(=O)N3CCN(c4cccc(C(F)(F)F)c4)CC3)c21,-11.1%
20,O=C(CCCn1c(=O)c2ccccc2n(Cc2cccc(F)c2)c1=O)NC1CCN(Cc2ccccc2)CC1,active: 39.6%
21,COc1cc(C(CC(=O)NCc2ccc(F)cc2)N2Cc3ccccc3C2=O)cc(OC)c1OC (stereo not given),10.4%
22,COc1ccc(NC(=O)Cn2c(=O)n(-c3ccc(OC)c(OC)c3)c(=O)c3ccccc32)cc1,-26.9%
23,CCCCN(C)c1nc2c(S(=O)(=O)c3ccc(CC)cc3)nnn2c2ccc(Cl)cc12,1.87%
24,COc1ccccc1NC(=O)C1=C(C)Nc2c(C(=O)Nc3ccc(F)cc3)cnn2C1c1cccc([N+](=O)[O-])c1 (stereo not given),0.168%
25,CCOC(=O)c1sc(=S)n(-c2ccc(C)cc2)c1SC,active: 47.6%

# Reference: PubChem BioAssay AID485344 (National Center for Advancing Translational Sciences (NCATS), 2010)
